# Measured values: PubChem BioAssay AID463173 (ICCB-Longwood Screening Facility, Harvard Medical School, 2010)
# Among all 52,000 compounds or so, about 1,700 (3.3%) were called active. Rule as the data show it: active = survival mostly below about 52% (no sharp cut-off); inactive = mostly above about 56%. This is one part of the list.
# System: Wild type
# Assay: S. aureus survival, RN4220 and DeltatarO strains – OD600, teichoic acid synthesis inhibitors, primary screen (AID 463173)
# Conditions: S. aureus RN4220 wild type/DeltatarO growth, OD600, 18 h, hits give low values, screened at 18.75 µg/mL (by protocol)
row,Structure (SMILES),survival
1,CCCCn1c(SCC(=O)NCc2ccc(C)cc2)nc2c(sc3ccccc32)c1=O,inactive: 69%
2,CCN1CCN(c2cc(C)c3cc(NC(=O)c4ccc(OC)c(OC)c4)ccc3n2)CC1,inactive: 65%
3,Cc1nc2c(c(C)nn2-c2ccccc2)c(C)c1CCC(=O)NCc1ccccc1,inactive: 94%
4,CCc1cccc(NC(=O)C2CCN(S(=O)(=O)c3cccc(-c4noc(C)n4)c3)CC2)c1,inactive: 80%
5,Cc1ccc(-c2n[nH]c(=S)c3ccccc23)cc1S(=O)(=O)N1CCN(C)CC1,inactive: 106%
6,COc1ccc(C2c3cccn3CCN2S(=O)(=O)c2ccc([N+](=O)[O-])cc2)cc1 (stereo unspecified),inactive: 68%
7,COc1ccc(C)cc1Nc1nc(N)c2cc(OC)c(OC)cc2n1,inactive: 75%
8,CC(=O)c1cccc(NC(=O)c2nc(-c3ccccc3)n(-c3ccccc3C)n2)c1,inactive: 83%
9,CCN1CCN(Cc2c(O)ccc3cc(-c4ccc(OC)cc4)c(=O)oc23)CC1,inactive: 97%
10,Cc1ccc(S(=O)(=O)c2nc(-c3cccc(Cl)c3)oc2NCc2ccccc2)cc1,inactive: 121%
11,Cc1cc(C)c(NC(=O)Cn2c(=O)n(Cc3ccc(C(=O)NCc4ccco4)cc3)c(=O)c3sccc32)c(C)c1,inactive: 148%
12,Cc1nnc(N2CCCC(C(=O)NCCc3ccccc3)C2)c2nn(-c3ccccc3)c(C)c12 (stereo unspecified),inactive: 69%
13,Cc1ccn2cc(-c3ccc(C)c(NS(=O)(=O)c4ccc(Cl)cc4)c3)nc2c1,inactive: 58%
14,CN(C)CCNC(=O)c1ccc2c(c1)N(Cc1c(F)cccc1Cl)C(=O)c1ccccc1S2,inactive: 105%
15,CCOC(=O)Cn1c(=O)oc2cc(S(=O)(=O)N3CCN(c4cc(C)ccc4C)CC3)ccc21,inactive: 81%
16,COC(=O)c1cc2oc3ccccc3c2n1CC(=O)Nc1ccc(C)cc1C,inactive: 86%
17,CCOC(=O)c1c(NC(=O)c2ccc(C)c(C)c2)sc2c1CCCCC2,active: 0%
18,Cn1cnc(S(=O)(=O)N2CCCC(C(=O)Nc3ccc(OC(F)(F)F)cc3)C2)c1 (stereo unspecified),inactive: 19%
19,CCc1ccc(C(=O)NC2=NC(c3ccccc3F)CC(=O)N2)cc1 (stereo unspecified),inactive: 166%
20,CCC(=O)N1CCc2cc(S(=O)(=O)NC(C(=O)Nc3cc(OC)cc(OC)c3)C(C)C)ccc21 (stereo unspecified),inactive: 87%
21,COCCCNC(=O)c1ccc2nc(CCc3ccccc3)oc2c1,inactive: 88%
22,N#C/C(=C/c1ccc(-c2ccc(Br)cc2)o1)C(=O)NC1CCCCC1,inactive: 127%

row,Structure (SMILES),survival
1,CCCN1CCN(CCCNC(=O)c2c(C)nn(-c3ccc(F)cc3)c2-n2cccc2)CC1,inactive: 78%
2,CCOc1ccc(CNC(=O)Cn2c(=O)c3cccn3c3ccccc32)cc1,inactive: 95%
3,Cc1c(Cl)ccc2sc(N3CCN(C(=O)CS(=O)(=O)c4ccccc4)CC3)nc12,inactive: 124%
4,CCOc1ccc(OCC)c(NS(=O)(=O)c2ccc3c(c2)CCN3C(=O)C2CCC2)c1,inactive: 71%
5,O=C(Cc1c(C(=O)O)[nH]c2ccccc12)Nc1cccc(C(F)(F)F)c1,inactive: 69%
6,CC(C)c1ccc(-c2nnn(CC(=O)OC3CCCCC3)n2)cc1,inactive: 111%
7,CC(C)(C)OC(=O)N1CCC2(CC1)C(C#N)=C(N)OC1=C2C(=O)CCC1,inactive: 104%
8,CN1C(=O)/C(=C/c2ccco2)SC1=Nc1cccc(C(=O)O)c1,inactive: 100%
9,Cc1ccc(OCC(=O)Nc2ccc(-c3nc4ccccc4o3)cc2)c(C)c1,inactive: 90%
10,CCn1cc2nc(SCc3cccc(C(F)(F)F)c3)n(Cc3ccc(C)cc3)c(=O)c2n1,inactive: 83%
11,O=C(NCc1ccc(Cl)cc1Cl)c1cccc(N2CCCS2(=O)=O)c1,inactive: 69%
12,COc1ccc(-c2cc(C(=O)Nc3cnn(Cc4ccc(F)cc4)c3)no2)cc1OC,inactive: 75%
13,Cc1cc(Br)ccc1NC(=O)C1CC(O)CN1C(=O)OCc1ccccc1 (stereo unspecified),inactive: 103%
14,Cc1cc(F)ccc1NC(=O)c1c(C)oc2c1C1=NCCN1C=N2,inactive: 135%
15,CCc1ccccc1NC(=O)CSc1nc2c(c(=O)[nH]1)CN(Cc1ccccc1OC)CC2,inactive: 86%
16,COc1cc2c(cc1NC(=O)C(C)Oc1ccccc1)oc1ccccc12 (stereo unspecified),active: 1%
17,COc1ccccc1-n1c(=O)n(C)c2c(C(N)=O)nc(-c3cc(OC)c(OC)c(OC)c3)nc21,inactive: 119%
18,Cc1ccc(C)c(Cn2c(=O)n(CCCC(=O)NCc3ccc4c(c3)OCO4)c(=O)c3sccc32)c1,inactive: 88%
19,O=C1CCCS(=O)(=O)CC1,inactive: 102%
20,CCC1CN(C(=O)Nc2cc(Cl)ccc2C(=O)OC)c2ccccc2S1 (stereo unspecified),inactive: 152%
21,COc1ccc(OC)c(NC(=O)COCc2cc(-c3ccc(F)cc3)on2)c1,inactive: 74%
22,CN(C(=O)c1nn(C)c2c1CS(=O)(=O)c1ccccc1-2)c1cccc(Cl)c1,inactive: 82%

row,Structure (SMILES),survival
1,CCCSc1ncc(Cl)c(C(=O)N2CCN(c3ccc(OC)cc3)CC2)n1,inactive: 85%
2,CC(C)Oc1ccc(C(=O)N2CCCCC2CCN2CCCCC2)cc1 (stereo unspecified),inactive: 86%
3,CCOC(=O)c1ccc(NC(=O)N2C3CCC2CC(NC(=O)NC24CC5CC(CC(C5)C2)C4)C3)cc1 (stereo unspecified),inactive: 116%
4,CCC(C)c1ccc(OCC(=O)Nc2ccc(-c3nc4ncccc4o3)cc2)cc1 (stereo unspecified),inactive: 60%
5,CCOC(=O)c1ccc(NC(=O)c2c(NCc3cccc(OC)c3OC)sc3c2CCC3)cc1,inactive: 68%
6,CCOC(=O)c1sc(N2C(=O)c3oc4ccc(F)cc4c(=O)c3C2c2ccc(O)cc2)nc1C (stereo unspecified),inactive: 73%
7,CCCOc1ccc(CNC(=O)c2cc3ccccn3n2)cc1,inactive: 136%
8,CCc1cccc(NC(=O)CCNS(=O)(=O)c2ccc3c(c2)CCN3C(C)=O)c1,inactive: 76%
9,Cc1ccc(/C=C/c2onc(C)c2S(=O)(=O)N2CCC(C(=O)N(CCC(C)C)Cc3ccco3)CC2)cc1,inactive: 86%
10,COc1ccc(N2CCN(CCCNC(=O)c3ccc4nc(N5CCCCC5)sc4c3)CC2)cc1,inactive: 79%
11,Cc1ccc(N2C(=O)CSC23C(=O)N(CC(=O)Nc2ccccc2F)c2ccccc23)cc1C (stereo unspecified),inactive: 73%
12,Cc1ccc(CNC(=O)c2ccc(CS(=O)(=O)c3ccccc3C)o2)cc1,inactive: 76%
13,CCOC(=O)CSc1nc2cc3c(cc2c(=O)n1CCCCCC(=O)NCc1ccc(OC)cc1)OCO3,inactive: 71%
14,CN(C)c1ccc(CNC(=O)c2ccc3nc(CCc4ccccc4)oc3c2)cc1,inactive: 78%
15,COc1ccccc1NC(=O)Cn1c(=O)n(-c2ccc(C)cc2)c(=O)c2c1cnn2C,inactive: 83%
16,CCOc1ccc(NC(=O)c2oc3ccccc3c2NC(=O)c2cc3ccccc3o2)cc1,inactive: 86%
17,COc1ccc(-n2nc(C(=O)Nc3cccc(Cl)c3)c3c4ccccc4n(C)c3c2=O)cc1Cl,inactive: 88%
18,CC(C)(C)c1ccc(-c2nnc(-c3ccccc3NC(=O)c3ccc(F)cc3F)o2)cc1,inactive: 144%
19,O=C(Nc1ccc(Br)cc1)c1cccc(S(=O)(=O)N2CCc3ccccc32)c1,inactive: 127%
20,CCCCCCC1CCC(C(=O)NC(C(=O)O)C(C)C)CC1 (stereo unspecified),inactive: 59%
21,O=C(CSc1oc(-c2ccco2)nc1S(=O)(=O)c1ccc(Cl)cc1)Nc1ccc(F)cc1,inactive: 94%
22,CC(C)c1ccc(NC(=O)CSC2=Nc3ccccc3C3=NC(CC(=O)NC4CCCCC4)C(=O)N23)cc1 (stereo unspecified),inactive: 83%

row,Structure (SMILES),survival
1,C=CCNC1CCS(=O)(=O)C1 (stereo unspecified),inactive: 108%
2,COc1ccc(-c2nc3ccccc3n3c(-c4ccccc4)c4c(=O)n(C)c(=O)n(C)c4c23)cc1,inactive: 80%
3,COc1ccc2c(Sc3ccc(Cl)cc3)c(C(=O)N3CCCCC3)[nH]c2c1,inactive: 33%
4,CC(C)CCNS(=O)(=O)c1ccc(N2CCCCS2(=O)=O)cc1,inactive: 85%
5,CCOc1ccc(C(=O)c2cn(CC(=O)Nc3ccc4c(c3)OCCO4)c3ccc(F)cc3c2=O)cc1,inactive: 90%
6,C=CCN(C(=O)c1ccc2c(c1)nnn2C)c1ccccc1,inactive: 105%
7,COc1ccc(NC(=O)Cn2c(=O)c3cc(Cl)ccc3n3nncc23)cc1,inactive: 111%
8,Cc1cccc(C)c1OC(=O)CSc1nnc(CNC(=O)c2ccccc2)o1,inactive: 100%
9,CN(C(=O)CSc1nc(C2CCCC2)nc2c1c(=O)n(C)c(=O)n2C)c1ccccc1,inactive: 128%
10,CC1CCN(C(=O)CSc2nnc(-c3ccccc3)o2)CC1,inactive: 69%
11,COCCCNC(=O)CSc1nc2cc3c(cc2c(=O)n1CCCCCC(=O)NCc1ccc(OC)cc1)OCO3,active: 1%
12,CC(C)COC(=O)Cn1nnc2sc(-c3ccccc3)cc2c1=O,inactive: 88%
13,O=C(CSc1oc(-c2ccccc2)nc1S(=O)(=O)c1ccc(Cl)cc1)NC1CCCCC1,inactive: 72%
14,CCCc1nnc(NC(=O)Cc2coc3ccc(C(C)C)cc23)s1,inactive: 99%
15,COc1ccc(-n2nnc(-c3nsc(NC(=O)c4ccc(C)c(C)c4)n3)c2C)cc1Cl,inactive: 134%
16,CC1CCN(C(=O)c2ccc3c(c2)N(Cc2ccccc2)C(=O)c2ccccc2S3(=O)=O)CC1,inactive: 96%
17,CN(C)c1ccc(N/C=C(\C#N)c2nc3ccccc3[nH]2)cc1,inactive: 118%
18,Cc1ccc(NC(=O)c2cnc(SCC(=O)N3CCOCC3)n(C)c2=O)cc1C,inactive: 75%
19,O=C(CN1CCCN(S(=O)(=O)c2ccc(Br)cc2)CC1)Nc1cccc(C(F)(F)F)c1,inactive: 64%
20,Cc1cc(C)c(NS(=O)(=O)c2cc(-c3onc(C)c3C)ccc2C)c(C)c1,inactive: 70%
